Reference: the supplement of paper PMC4967469
Lines with a small IC50 respond at low doses; where the fit passes the top or lowest dose, that dose stands as a limit. AUC sums up the same curve from the lowest dose to the 256-fold higher top dose: 1 means no effect, lower means more sensitive. Where the top dose is marked as inferred, it is not printed in the source and was worked back from the curve model. For part of these data: An entry number marks a drug with two screens in the source, which often give different values.

Experiments:
Experiment in all cases: Viability of human cancer cell lines after 72 h of drug (GDSC screen)
[1] = compound: Cc1cc(N2CCOCC2)cc2[nH]c(-c3c(NC[C@@H](O)c4cccc(Cl)c4)cc[nH]c3=O)nc12 [BMS-536924]; conditions: top dose 4 µM; screen: GDSC drug entry 1091; top dose inferred
Experimental: (§1)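 Human cancer cell lines in 384-well plates, medium with 10% serum, drug for 72 h over a 256-fold dose range (nine 2-fold or five 4-fold steps up to the top dose). Adherent lines were fixed and stained with the nucleic acid dye Syto60, suspension lines read with resazurin; signal relative to control wells, capped at 0 and 100%. One two-parameter sigmoid per drug and line, fitted in a mixed model over all curves with the slope shared within a line.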

[2] = compound: CC(C)=CC[C@@H](O)C1=CC(=O)c2c(O)ccc(O)c2C1=O [Shikonin]; conditions: top dose 16 µM; top dose inferred
Experimental: as §1

[3] = compound: O=C1NC(=O)c2c1c(-c1ccccc1Cl)cc1[nH]c3ccc(O)cc3c21 [Wee1 inhibitor 681640]; conditions: top dose 2 µM; top dose inferred
Experimental: as §1

[4] = compound: NC(=O)c1ccc(N(C(N)=O)c2c(F)cccc2F)nc1-c1ccc(F)cc1F [VX-702]; conditions: top dose 2 µM; top dose inferred
Experimental: as §1

[5] = compound: Cc1ccc(-n2nc(C(C)(C)C)cc2NC(=O)Nc2ccc(OCCN3CCOCC3)c3ccccc23)cc1 [BIRB 0796]; conditions: top dose 10 µM; top dose inferred
Experimental: as §1

[6] = compound: O=C(c1cc(Cc2n[nH]c(=O)c3ccccc23)ccc1F)N1CCN(C(=O)C2CC2)CC1 [Olaparib]
Experimental: as §1

[7] = compound: Cc1cccc(-c2[nH]c(C(C)(C)C)nc2-c2ccc3nccnc3c2)n1 [SB-525334]; conditions: top dose 20 µM; top dose inferred
Experimental: as §1

[8] = top dose 5 µM, screen: GDSC drug entry 1017, top dose inferred
[9] = top dose 10 µM, screen: GDSC drug entry 1495

HN (head and neck, adherent)
AUC [1]: 0.909 | IC50 [1]: > 4 µM | AUC [2]: 0.51 | IC50 [2]: 1.07 µM | AUC [3]: 0.852 | IC50 [3]: 1.4 µM | AUC [4]: 0.938 | IC50 [4]: > 2 µM | AUC [5]: 0.966 | IC50 [5]: > 10 µM | AUC [6, 8]: 0.955 | IC50 [6, 8]: > 5 µM | AUC [6, 9]: 0.863 | IC50 [6, 9]: 7.77 µM | AUC [7]: 0.989 | IC50 [7]: > 20 µM

HO-1-u-1 (head and neck, adherent)
AUC [1]: 0.926 | IC50 [1]: > 4 µM | AUC [2]: 0.541 | IC50 [2]: 1.28 µM | AUC [3]: 0.988 | IC50 [3]: > 2 µM | AUC [4]: 0.986 | IC50 [4]: > 2 µM | AUC [5]: 0.972 | IC50 [5]: > 10 µM | AUC [6, 8]: 0.915 | IC50 [6, 8]: > 5 µM | AUC [6, 9]: 0.947 | IC50 [6, 9]: > 10 µM | AUC [7]: 0.895 | IC50 [7]: > 20 µM

HOS (osteosarcoma, adherent)
AUC [1]: 0.917 | IC50 [1]: > 4 µM | AUC [2]: 0.228 | IC50 [2]: 0.192 µM | AUC [3]: 0.894 | IC50 [3]: 1.71 µM | AUC [4]: 0.989 | IC50 [4]: > 2 µM | AUC [5]: 0.929 | IC50 [5]: > 10 µM | AUC [6, 8]: 0.935 | IC50 [6, 8]: > 5 µM | AUC [6, 9]: 0.981 | IC50 [6, 9]: > 10 µM | AUC [7]: 0.988 | IC50 [7]: > 20 µM

HT-3 (cervix, adherent)
AUC [1]: 0.755 | IC50 [1]: 1.37 µM | AUC [2]: 0.471 | IC50 [2]: 0.835 µM | AUC [3]: 0.948 | IC50 [3]: > 2 µM | AUC [4]: 0.987 | IC50 [4]: > 2 µM | AUC [5]: 0.952 | IC50 [5]: > 10 µM | AUC [6, 8]: 0.987 | IC50 [6, 8]: > 5 µM | AUC [6, 9]: 0.861 | IC50 [6, 9]: 8.67 µM | AUC [7]: 0.967 | IC50 [7]: > 20 µM

HT-1376 (bladder, adherent)
AUC [1]: 0.838 | IC50 [1]: 3.43 µM | AUC [2]: 0.427 | IC50 [2]: 0.609 µM | AUC [3]: 0.926 | IC50 [3]: > 2 µM | AUC [4]: 0.984 | IC50 [4]: > 2 µM | AUC [5]: 0.984 | IC50 [5]: > 10 µM | AUC [6, 8]: 0.976 | IC50 [6, 8]: > 5 µM | AUC [6, 9]: 0.941 | IC50 [6, 9]: > 10 µM | AUC [7]: 0.985 | IC50 [7]: > 20 µM

Hep 3B2_1-7 (liver, adherent)
AUC [1]: 0.723 | IC50 [1]: 1.07 µM | AUC [2]: 0.301 | IC50 [2]: 0.277 µM | AUC [3]: 0.984 | IC50 [3]: > 2 µM | AUC [4]: 0.986 | IC50 [4]: > 2 µM | AUC [5]: 0.937 | IC50 [5]: > 10 µM | AUC [6, 8]: 0.987 | IC50 [6, 8]: > 5 µM | AUC [6, 9]: 0.985 | IC50 [6, 9]: > 10 µM | AUC [7]: 0.94 | IC50 [7]: > 20 µM

Hs633T (fibrosarcoma, adherent)
AUC [1]: 0.898 | IC50 [1]: 3.39 µM | AUC [2]: 0.196 | IC50 [2]: 0.157 µM | AUC [3]: 0.898 | IC50 [3]: 1.69 µM | AUC [4]: 0.987 | IC50 [4]: > 2 µM | AUC [5]: 0.955 | IC50 [5]: > 10 µM | AUC [6, 8]: 0.917 | IC50 [6, 8]: > 5 µM | AUC [6, 9]: 0.895 | IC50 [6, 9]: 8.24 µM | AUC [7]: 0.976 | IC50 [7]: > 20 µM

Hs746T (stomach, adherent)
AUC [1]: 0.978 | IC50 [1]: > 4 µM | AUC [2]: 0.718 | IC50 [2]: 5.23 µM | AUC [3]: 0.851 | IC50 [3]: > 2 µM | AUC [4]: 0.969 | IC50 [4]: > 2 µM | AUC [5]: 0.962 | IC50 [5]: > 10 µM | AUC [6, 8]: 0.962 | IC50 [6, 8]: > 5 µM | AUC [6, 9]: 0.93 | IC50 [6, 9]: > 10 µM | AUC [7]: 0.969 | IC50 [7]: > 20 µM

HuCCT1 (biliary tract, adherent)
AUC [1]: 0.98 | IC50 [1]: > 4 µM | AUC [2]: 0.329 | IC50 [2]: 0.314 µM | AUC [3]: 0.944 | IC50 [3]: > 2 µM | AUC [4]: 0.984 | IC50 [4]: > 2 µM | AUC [5]: 0.981 | IC50 [5]: > 10 µM | AUC [6, 8]: 0.983 | IC50 [6, 8]: > 5 µM | AUC [6, 9]: 0.929 | IC50 [6, 9]: > 10 µM | AUC [7]: 0.98 | IC50 [7]: > 20 µM
